According to the supplement of paper PMC8728848:
The list shows a part of the results.

Experiments:
Test in all cases: glycan array binding signal (z-score within array); higher = stronger binding
Conditions in all cases: glycan notation: IUPAC condensed, linker removed
[1] = biological target: Neu5Ac(a2-3)GalNAc(b1-4)GlcNAc
Outline: (§1)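 Glycan array data were curated from 3228 arrays in the Consortium for Functional Glycomics database and kept only where the protein sequence was available. Glycan names were converted to IUPAC-condensed notation, and columns mapping to the same glycan were averaged. The binding signal is a within-array Z-score, averaged across arrays of the same protein sequence at different concentrations or buffers and across linkers. Negative Z-scores can be read as non-binding.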

[2] = biological target: Neu5Ac(a2-3)[GalNAc(b1-4)]Gal(b1-4)Glc
Outline: as §1

[3] = biological target: Neu5Ac(a2-3)[GalNAc(b1-4)]Gal(b1-4)GlcNAc
Outline: as §1

[4] = biological target: Neu5Ac(a2-3)[Neu5Ac(a2-6)]GalNAc
Outline: as §1

[5] = biological target: Neu5Ac(a2-6)Gal(b1-4)GlcNAc
Outline: as §1

[6] = biological target: Neu5Ac(a2-6)Gal(b1-4)GlcNAc(b1-2)Man(a1-3)[Neu5Ac(a2-6)Gal(b1-4)GlcNAc(b1-2)Man(a1-6)]Man(b1-4)GlcNAc(b1-4)GlcNAc
Outline: as §1

[7] = biological target: Neu5Ac(a2-6)Gal(b1-4)GlcNAc(b1-3)Gal(b1-4)GlcNAc
Outline: as §1

[8] = biological target: Neu5Ac(a2-6)Gal(b1-4)GlcNAc(b1-3)Gal(b1-4)[Fuc(a1-3)]GlcNAc(b1-3)Gal(b1-4)[Fuc(a1-3)]GlcNAc
Outline: as §1

[9] = biological target: Neu5Ac(a2-6)Gal(b1-4)GlcNAc6S
Outline: as §1

[10] = biological target: Neu5Ac(a2-6)GalNAc
Outline: as §1

[11] = biological target: Neu5Ac(a2-6)GalNAc(b1-4)GlcNAc
Outline: as §1

[12] = biological target: Neu5Ac(a2-8)Neu5Ac
Outline: as §1

[13] = biological target: Neu5Ac(a2-8)Neu5Ac(a2-3)Gal(b1-4)Glc
Outline: as §1

[14] = biological target: Neu5Ac(a2-8)Neu5Ac(a2-3)[GalNAc(b1-4)]Gal(b1-4)Glc
Outline: as §1

[15] = biological target: Neu5Ac(a2-8)Neu5Ac(a2-8)Neu5Ac
Outline: as §1

[16] = biological target: Neu5Ac(a2-8)Neu5Ac(a2-8)Neu5Ac(a2-3)Gal(b1-4)Glc
Outline: as §1

[17] = biological target: Neu5Ac(a2-8)Neu5Ac(a2-8)Neu5Ac(a2-3)[GalNAc(b1-4)]Gal(b1-4)Glc
Outline: as §1

[18] = biological target: Neu5Ac(a2-8)Neu5Ac(a2-8)Neu5Ac(a2-8)Neu5Ac(a2-3)[GalNAc(b1-4)]Gal(b1-4)Glc
Outline: as §1

[19] = biological target: Neu5Ac9Ac(a2-6)Gal(b1-4)GlcNAc
Outline: as §1

[20] = biological target: Neu5Gc(a2-3)Gal(b1-3)GlcNAc
Outline: as §1

[21] = biological target: Neu5Gc(a2-3)Gal(b1-3)[Fuc(a1-4)]GlcNAc
Outline: as §1

[22] = biological target: Neu5Gc(a2-3)Gal(b1-4)Glc
Outline: as §1

[23] = biological target: Neu5Gc(a2-3)Gal(b1-4)GlcNAc
Outline: as §1

[24] = biological target: Neu5Gc(a2-3)Gal(b1-4)[Fuc(a1-4)]GlcNAc
Outline: as §1

[25] = biological target: Neu5Gc(a2-6)Gal(b1-4)GlcNAc
Outline: as §1

[26] = biological target: Neu5Gc(a2-6)GalNAc
Outline: as §1

B1: Epa1 (Candida glabrata), Q6FUW5_CANGA (protein)
chain: MILNPALFLNKCVCIYTTLILLLLTNGGYATSSNDISLASKDPTTFPLGCSPDITTPKKGLSMELYSYDFRKKGSYPCWDAAYLDPNYPRTGYKSHRLLAKVDGVTGNINFYYHATKGCTPQLGHLPASYNYPKPLTMTNFTMLLYGYFRPKVTGFHTFTISADDLLFVNFGAGNAFDCCRRDSSADHFGNYQAYAIWGSKTAKDELTVHLDAGVYYPIRLFYNNREYDGALSFTFKTESNENTVSDFSEYFFSLDDTEEGCPGLISYDSSCASVKTSKIIGIDYHTETPNENLVPITKTIYHLGIPCTGTTTTPLCGSGFYDPLANKCVTINTSSTSSVTKTTSHTTSKEVSFHSSISSQKTLIPKSIPSPYGPIKSQSIPTEMETSSEISSSEYAFSDVISTPSHSPYTKKHSSLNSSSYTSTVIHSLTSYSISQGIFSTSLSEQNITSKSSTDKFSTATSMSNSITQSSIIISQSSTNNENYTTTSMHTSSDKISTETLNNSISTTTSILFSNSSTILKNNTTIISSDKDTHYHPVNPTIVCSTNKTEIICASITQPSISNSNNHWSSSVLRFNSTTVRSTLPSSAGSNETSINVPFSSSTESNASTSSTSTSNSKTVRSTLPSSAGSNETSINVPFSSSTESNTSTSSTSTSNSKTVRSTLPSSAGSNETSINVPFSSSTESNASTSSTSTSNSKTVRSTPFSSAGIIMTSLSQRNNKSASSYASSNSKCYNTADSCRKVHSTPSYLLTSSYTSEGVDYDCSLVSTKLKINDTNCLNNKHTTKSCLKTSVTTTIPTLEIKTARKSSSNTIGLHSYPTSSPNKSISSAPIIGYISSFKTIKTASPSYQTSDLTTITTITSLNNPGSTAVENTHESNDKSRKTSSNDISSKHSVIKETKDAVESSNKSHQTNTLKCSSIIIASSSHNSYESLGGTTLTLTLSKVYSPQNNDTLPFLEISEVNPSRTVLPESSKMMQYLTSTEERNKTARNTIATNIVSISTFHFEGEGNAIRMGYTQLLLMLIGIIVMNIGT
glycan array binding signal (z-score) [1]: -0.551 | glycan array binding signal (z-score) [2]: -0.553 | glycan array binding signal (z-score) [3]: -0.553 | glycan array binding signal (z-score) [4]: -0.548 | glycan array binding signal (z-score) [5]: -0.55 | glycan array binding signal (z-score) [6]: -0.531 | glycan array binding signal (z-score) [7]: -0.554 | glycan array binding signal (z-score) [8]: -0.542 | glycan array binding signal (z-score) [9]: -0.553 | glycan array binding signal (z-score) [10]: -0.551 | glycan array binding signal (z-score) [11]: -0.557 | glycan array binding signal (z-score) [12]: -0.554 | glycan array binding signal (z-score) [13]: -0.552 | glycan array binding signal (z-score) [14]: -0.554 | glycan array binding signal (z-score) [15]: -0.554 | glycan array binding signal (z-score) [16]: -0.554 | glycan array binding signal (z-score) [17]: -0.55 | glycan array binding signal (z-score) [18]: -0.55 | glycan array binding signal (z-score) [19]: -0.558 | glycan array binding signal (z-score) [20]: -0.551 | glycan array binding signal (z-score) [21]: -0.548 | glycan array binding signal (z-score) [22]: -0.55 | glycan array binding signal (z-score) [23]: -0.549 | glycan array binding signal (z-score) [24]: -0.553 | glycan array binding signal (z-score) [25]: -0.556 | glycan array binding signal (z-score) [26]: -0.556
